Results: the supplement of paper PMC4604168 (melanoma cell lines)
Some of the results follow. Repeats are few or missing, and single values can be far off.

Assays:
Experiment in all cases: cell count relative to DMSO control; melanoma cells; higher = more viable cells
Settings in all cases: library dose: standard library concentration; 72 h
A101D = system: A101D
A2058 = system: A2058
A375 = system: A375
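Note: cells treated in 1,536-well plates, then fixed and DAPI-stained, with nuclei counted from automated high-throughput microscope images.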

SMILES	cell count (A101D)	cell count (A2058)	cell count (A375)
Nc1cccc2c1CN(C1CCC(=O)NC1=O)C2=O (configuration not stated) [lenalidomide] + CO[C@@H]1[C@H](N(C)C(=O)c2ccccc2)C[C@H]2O[C@]1(C)n1c3ccccc3c3c4c(c5c6ccccc6n2c5c31)C(=O)NC4 [Midostaurin] (first compound 5 µM, partner dose 0.4 µM)	87.3%	67.4%	73.5%
OCc1c[nH]c2ccccc12 [Indole-3-carbinol] + Cc1ccc(NC(=O)c2cccc(N(C)C)c2)cc1NC(=O)c1ccc(O)cc1 [ZM336372] (first compound 4 µM, partner dose 10 µM)	98.5%	103%	107%
COCC[n+]1c2c(n(Cc3cnccn3)c1C)C(=O)c1ccccc1C2=O + CO[C@@H]1[C@H](N(C)C(=O)c2ccccc2)C[C@H]2O[C@]1(C)n1c3ccccc3c3c4c(c5c6ccccc6n2c5c31)C(=O)NC4 [Midostaurin] (first compound 0.002 µM, partner dose 0.4 µM)	44.6%	11.5%	47.7%
Clc1ccc(Nc2nnc(Cc3ccncc3)c3ccccc23)cc1 [vatalanib] + C[C@]1(c2nc3c(C(N)=O)cccc3[nH]2)CCCN1 [Veliparib] (first compound 10 µM, partner dose 7 µM)	79.5%	78.2%	106%
COCC[n+]1c2c(n(Cc3cnccn3)c1C)C(=O)c1ccccc1C2=O + CC(C)(C)c1cnc(CSc2cnc(NC(=O)C3CCNCC3)s2)o1 [SNS-032] (first compound 0.002 µM, partner dose 0.05 µM)	41.2%	15.5%	87.8%
Clc1ccc(Nc2nnc(Cc3ccncc3)c3ccccc23)cc1 [vatalanib] + Cc1ccc(NC(=O)c2cccc(N(C)C)c2)cc1NC(=O)c1ccc(O)cc1 [ZM336372] (first compound 10 µM, partner dose 10 µM)	61.3%	104%	88.2%
OCc1c[nH]c2ccccc12 [Indole-3-carbinol] + Cc1nc(Nc2ncc(C(=O)Nc3c(C)cccc3Cl)s2)cc(N2CCN(CCO)CC2)n1 [dasatanib] (first compound 4 µM, partner dose 0.02 µM)	81.3%	64.4%	70.4%
OCc1c[nH]c2ccccc12 [Indole-3-carbinol] + C=CCn1c(=O)c2cnc(Nc3ccc(N4CCN(C)CC4)cc3)nc2n1-c1cccc(C(C)(C)O)n1 [MK1775] (first compound 4 µM, partner dose 0.1 µM)	67.2%	99.6%	73.1%
Clc1ccc(Nc2nnc(Cc3ccncc3)c3ccccc23)cc1 [vatalanib] + C#Cc1cccc(Nc2ncnc3cc(OCCOC)c(OCCOC)cc23)c1 [erlotinib] (first compound 10 µM, partner dose 4 µM)	65.2%	78.5%	87.8%
O=C(CCCCCCC(=O)Nc1ccccc1)NO [vorinostat] + NCC(=O)Nc1ccc(-n2nc(C(F)(F)F)cc2-c2ccc3c(ccc4ccccc43)c2)cc1 [OSU03012] (first compound 0.4 µM, partner dose 5 µM)	60%	87.4%	38.9%
O=C(CCCCCCC(=O)Nc1ccccc1)NO [vorinostat] + C=CCn1c(=O)c2cnc(Nc3ccc(N4CCN(C)CC4)cc3)nc2n1-c1cccc(C(C)(C)O)n1 [MK1775] (first compound 0.4 µM, partner dose 0.1 µM)	72.6%	88.7%	53.7%
Clc1ccc(Nc2nnc(Cc3ccncc3)c3ccccc23)cc1 [vatalanib] + Cc1cc(N2CCOCC2)cc2[nH]c(-c3c(NC[C@@H](O)c4cccc(Cl)c4)cc[nH]c3=O)nc12 [BMS536924] (first compound 10 µM, partner dose 1 µM)	99.2%	107%	92.5%
C#Cc1cccc(Nc2ncnc3cc(OCCOC)c(OCCOC)cc23)c1 [erlotinib] + COCC[n+]1c2c(n(Cc3cnccn3)c1C)C(=O)c1ccccc1C2=O [YM155] (first compound 4 µM, partner dose 0.002 µM)	40.9%	18%	74.5%
O=C(CCCCCCC(=O)Nc1ccccc1)NO [vorinostat] + Cc1cc(N2CCOCC2)cc2[nH]c(-c3c(NC[C@@H](O)c4cccc(Cl)c4)cc[nH]c3=O)nc12 [BMS536924] (first compound 0.4 µM, partner dose 1 µM)	75.5%	103%	138%
